Measurements as given in PubChem BioAssay AID1159614 (National Center for Advancing Translational Sciences (NCATS), 2016).
Screen size: about 45,000 compounds; about 65 (0.1%) were called active. The call rests on the fitted dose curve; in most records, active means well fitted activation curve with a large enough effect; inconclusive means small, poorly fitted or top-dose-only effect; inactive means no such curve, though single readings can be large or run the other way. The list shows a part of the results.

target: Galactocerebrosidase (Homo sapiens) (UniProt P54803); assay: A Novel Cell-Based Assay to Identify Small Molecules for B -Galactocerebrosidase; conditions: 145M-Twi-hGALC-G270D cells (Twitcher mouse brain line with human GALC G270D), HMU-beta-Gal fluorescence, 48 h; series mostly up to 57.5 µM; activation: at the top concentration; further: 0% is about no effect; nearly all actives have a fitted effect of over 65% in size
How it was run: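 Live 145M-Twi cells (Twitcher mouse brain-derived, GALC-null) stably expressing human GALC-G270D, with a wild-type GALC line, were compound-treated. Residual GALC activity was then read as fluorescence from 0.1 mM final HMU-β-gal at pH 5.2; higher signal means activation.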

Chain of UniProt P54803 (P54803 whole entry, looked up): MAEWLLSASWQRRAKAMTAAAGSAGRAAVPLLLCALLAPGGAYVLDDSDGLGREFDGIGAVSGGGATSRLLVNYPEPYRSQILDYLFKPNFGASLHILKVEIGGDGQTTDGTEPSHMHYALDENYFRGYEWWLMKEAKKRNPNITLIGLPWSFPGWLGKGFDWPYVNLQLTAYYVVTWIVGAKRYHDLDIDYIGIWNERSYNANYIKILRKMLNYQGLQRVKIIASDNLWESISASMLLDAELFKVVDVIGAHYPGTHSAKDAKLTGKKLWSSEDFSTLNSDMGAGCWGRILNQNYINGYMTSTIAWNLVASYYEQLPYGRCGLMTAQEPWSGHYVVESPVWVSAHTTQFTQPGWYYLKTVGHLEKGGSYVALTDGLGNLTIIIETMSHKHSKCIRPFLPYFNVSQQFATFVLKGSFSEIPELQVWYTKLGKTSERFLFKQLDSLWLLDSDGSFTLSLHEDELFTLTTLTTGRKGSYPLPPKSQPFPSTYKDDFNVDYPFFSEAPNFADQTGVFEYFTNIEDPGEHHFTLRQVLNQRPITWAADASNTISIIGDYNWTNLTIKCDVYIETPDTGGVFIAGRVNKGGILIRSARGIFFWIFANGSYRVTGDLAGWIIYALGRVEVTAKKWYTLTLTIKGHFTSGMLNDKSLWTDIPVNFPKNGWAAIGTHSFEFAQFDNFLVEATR

SMILES	activation
COc1cccc(C(=O)Nc2c(C(=O)Nc3ccc(F)cc3)oc3ccccc23)c1OC	inactive: 1.86%
CCN(Cc1ccccc1)S(=O)(=O)c1cc(Br)cc2c1N(C(=O)C1CC1)CC2	inactive: -0.746%
Cc1ccc(NC(=O)c2cnc(N3CCCC3)nc2C)cc1F	inactive: -1.93%
CCOc1ccc(C(=O)Nc2nnc(SCc3cc(=O)n4ccccc4n3)s2)cc1	inactive: -14.9%
O=C(c1ccccc1)N1CCN(CCc2ccccn2)CC1	inactive: -16.6%
COc1ccc(NC(=O)CNC(=O)Cn2c(C)cc3ccccc3c2=O)c(OC)c1	inactive: -7.06%
CCOc1ccc(-n2cc(-c3ccccc3)c3c(Nc4cccc(F)c4)ncnc32)cc1	inactive: -5.39%
O=c1c2cc3c(cc2nc2sc(Nc4cccc([N+](=O)[O-])c4)nn12)OCO3	inactive: -0.158%
CC(=O)Nc1ccc(NC(=O)CN(C)S(=O)(=O)c2ccc3c(c2)CCCC(=O)N3)cc1	inactive: -14.9%
COc1ccc(CC(=O)NCC(c2cccs2)S(=O)(=O)c2ccc(F)c(C)c2)cc1 (stereo not given)	inactive: -16.7%
Cc1ccc(C)c(S(=O)(=O)c2nnn3c2nc(N2CCN(C)CC2)c2sccc23)c1	inactive: 8.02%
Cc1cc2oc(=O)c(CC(=O)NCCc3ccccc3F)c(C)c2c2occ(C(C)(C)C)c12	inactive: -5.61%
CC(=O)Nc1cc(C(=O)NCc2ccc(F)cc2)ccc1Sc1ccc(F)cc1	inactive: -4.79%
CCOC(=O)c1c(NC(=O)c2ccc(OCC)c(Br)c2)sc2c1CCCC2	inactive: -5.3%
CCCCN(C(=O)C1CCC(CNS(=O)(=O)c2cccc3nsnc23)CC1)c1ccccc1 (stereo not given)	inactive: -7.01%
COc1ccc(OC)c(NC(=O)C2CCCN(S(=O)(=O)c3ccc4c(c3)CCCC(=O)N4)C2)c1 (stereo not given)	inactive: -25%
COc1ccccc1C(=O)Nc1ccc2nc(SCC(=O)N3CCCc4ccccc43)sc2c1	inactive: -12.5%
Cc1cc2n(n1)CCC(=O)N2Cc1ccc(C(=O)Nc2cc(Cl)ccc2C)cc1	inactive: 5.3%
COc1ccccc1NC(=O)C1=C(C)Nc2nc(SC)nn2C1c1ccccc1Cl (stereo not given)	inactive: -11%
CCOC(=O)c1cc(S(=O)(=O)NCc2ccc(Cl)cc2)[nH]n1	inactive: -24.8%
COc1ccccc1C(=O)Nc1nc2n(n1)C(c1ccc(F)cc1)C=C(c1ccc(Cl)cc1)N2 (stereo not given)	inactive: -9.65%
Cc1cccc(CN2CCC(CNC(=O)Cn3ncc4c([nH]c5ccc(C)cc54)c3=O)CC2)c1	inactive: 4.91%
COc1ccccc1C(=O)N/C(=C\c1cn(S(=O)(=O)N(C)C)c2ccccc12)C(=O)NCCCn1ccnc1	inactive: -14.7%
CCc1ccc(CNC(=O)C2CCCN(c3nnc(C)c4c(C)n(-c5ccccc5)nc34)C2)cc1 (stereo not given)	inactive: -15.5%

SMILES	activation
Cc1ccccc1CSc1ncc(Cl)c(C(=O)Nc2nc3ccc(F)cc3s2)n1	inactive: 13.1%
CCCCOc1ccc(C(C)NC(=O)CN2C(=O)CSc3ccc(S(=O)(=O)N4CCOCC4)cc32)cc1 (stereo not given)	inactive: -7.55%
CSc1ccc(-c2nnn(CC(=O)Nc3sc4c(c3C#N)CCC(C(C)(C)C)C4)n2)cc1 (stereo not given)	inactive: -12.8%
CCCN(CCC)C(=O)Cn1c(=O)n(-c2cccc(C)c2)c(=O)c2c1c1cc(OC)ccc1n2C	inactive: -5.47%
COc1cccc(-c2cc(C(F)(F)F)nc(NCCc3ccc(OC)c(OC)c3)n2)c1	inactive: 3.13%
CCCCN=C(N)N=C(N)N	inactive: -12.8%
O=S1(=O)c2ccccc2N(Cc2cccc(F)c2)c2ccccc21	inactive: -16.7%
COc1ccc(NC(=O)c2ccco2)cc1NC(=O)c1cc(Cl)ccc1OC	inactive: -0.657%
CCC(=O)Nc1ccc(Cl)c(-c2nc3ccccc3[nH]2)c1	inactive: 0.826%
COc1ccccc1CN1CCC(CNC(=O)c2cnn(-c3ccccc3Cl)c2C2CCN(C(=O)OC(C)(C)C)CC2)CC1	inactive: -12.3%
COc1ccccc1CNC(=O)CCc1c(C)nc2cc(-c3ccc(Cl)cc3)nn2c1C	inactive: -4.3%
Cc1cccc(NC(=O)c2ccc(-n3c(C)nnc3C)cc2)c1	inactive: -23.7%
Cc1ccc(-n2ncc3c(N4CCCCCC4)ncnc32)cc1Cl	inactive: -15.8%
COc1ccc(-c2[nH]nc3nc(-c4cc(Br)ccc4OC)cc(C(=O)O)c23)cc1	inactive: -9.5%
Cc1c(C(=O)OC2CCCCC2)[nH]c2c1C(=O)CC(c1ccc(F)cc1)C2 (stereo not given)	inactive: -28.4%
CC(C)CC(=O)NCC(c1ccc2c(c1)OCO2)N1CCN(c2ccccc2)CC1 (stereo not given)	inactive: -8.64%
O=C(CN1CCCN(Cc2cccc(Cl)c2)S1(=O)=O)Nc1ccc2c(c1)OCCO2	inactive: -14.3%
COc1ccc(S(=O)(=O)N2Cc3ccccc3CC2C(=O)Nc2ccc(C)cc2)cc1OC (stereo not given)	inactive: -6.8%
COc1cccc(CNC(=O)C(=O)NCC(c2cccs2)S(=O)(=O)c2ccccc2)c1 (stereo not given)	inactive: 9.38%
COc1ccc(CCNC(=O)CCCn2c(=O)c3ccccc3n(Cc3ccccc3)c2=O)cc1OC	inactive: 2.71%
COc1c(Cl)cc(Cl)cc1C(=O)Nc1cccc(-c2nc3ccccc3o2)c1C	inactive: -17.6%
O=S(=O)(c1ccc(F)cc1)N1CCC(Oc2cccc(C(F)(F)F)c2)CC1	inactive: -10.1%
CCc1ccccc1NC(=O)c1cn(C)c(=O)c2ccccc12	inactive: 10.9%
CCn1c(COc2ccc(Cl)cc2Cl)nc2ccccc21	inactive: -13.6%

SMILES	activation
Cc1ccc(C)c(NC(c2ccccc2)c2nnc(-c3ccccc3F)o2)c1 (stereo not given)	inactive: -16.2%
CCOC(=O)CC(NC(=O)Cn1nnc(-c2ccccc2Cl)n1)c1ccc(OC)cc1 (stereo not given)	inactive: -15.5%
COc1ccc(CCN2C(=O)N(c3cccc(C)c3)C(=O)C2CC(=O)Nc2ccccc2)cc1OC (stereo not given)	inactive: -8.35%
Clc1ccc(CCNc2nc3cc(Cl)c(Cl)cc3n3cnnc23)cc1	inactive: -4.97%
Cc1cccc(CCNC(=O)c2cc(S(=O)(=O)N3CCCCC3)c[nH]2)c1	inactive: -11.4%
C/C=C/c1ccc(OC)cc1	inactive: -10.8%
Cc1c2cnn(-c3ccccc3)c(=O)c2c(C)n1C(C)C(=O)Nc1ccccc1C(F)(F)F (stereo not given)	inactive: -3.81%
Cc1cccc(N2CCN(C(=O)c3ccc4c(c3)N(Cc3ccccc3)C(=O)c3ccccc3S4(=O)=O)CC2C)c1 (stereo not given)	inactive: -10.5%
COc1ccccc1CNC(=O)CSc1ncc(S(=O)(=O)c2ccc(C)c(Cl)c2)c(=O)[nH]1	inactive: -10.1%
COc1cc(-c2nc(SCC(=O)Nc3ccc4c(c3)OCO4)c(-c3ccccc3)[nH]2)cc(OC)c1OC	inactive: -12.4%
COc1ccc(-c2nnc(C3CCN(S(=O)(=O)c4cccc(Cl)c4)CC3)o2)cc1	inactive: -9.48%
COc1ccc(-c2nnc(SCC(=O)N3CCC(C)CC3)o2)cc1	inactive: -12.1%
CCCN(CCC)CCc1cccc2c1CC(=O)N2	inactive: 2.68%
CNC(=O)C1CCC(Cn2c(=O)c3sccc3n(CC(=O)N3CCCC(C)C3)c2=O)CC1 (stereo not given)	inactive: -12.9%
COCCCNC(=O)C1CCN(Cc2cc3ccccc3n2Cc2cccc(C)c2)CC1	inactive: -4.34%
COc1ccc(OCCn2c(NC(=O)c3ccc(OC)cc3)nc3ccccc32)cc1	inactive: -18.3%
COc1ccccc1N1CCN(C(=O)C2CCCN(S(=O)(=O)c3ccc4c(c3)CCCN4C(C)=O)C2)CC1 (stereo not given)	inactive: -7.42%
COc1cc(NC(=O)CSc2nc3nc(C)c(Cc4ccccc4Cl)c(C)n3n2)cc(OC)c1	inactive: -14.1%
Cc1ccc(Nc2ncnc3sc4c(c23)CCC(C)C4)cc1C (stereo not given)	inactive: -20.2%
CCOC(=O)C1(C)C=C(Nc2cccc(C(=O)O)c2)C(=O)N1c1ccccc1 (stereo not given)	inactive: -13.8%
Cc1ccc(CNC(=O)C(=O)NCC(c2ccc3c(c2)OCO3)N2CCOCC2)cc1 (stereo not given)	inactive: -31.6%
Cc1ccc2c(=O)cc(C(=O)Nc3c(C)n(C)n(-c4ccccc4)c3=O)oc2c1	inactive: -9.97%
COc1cc2nc(SCc3ccc(C)cc3)n3nc(CCn4nc(C)cc4C)nc3c2cc1OC	inactive: -11.4%
CC(C)Cn1c(-c2cccc(Br)c2)nc2ccccc21	inactive: -2.66%

SMILES	activation
COC(=O)C(CCSC)Nc1ncnc2onc(-c3ccc(F)cc3)c12 (stereo not given)	inactive: -11.3%
CCCOc1ccc(CNC(=O)C(NS(=O)(=O)c2cccs2)C(C)C)cc1 (stereo not given)	inactive: -8.43%
COc1cc(Cl)c(C)cc1NC(=O)c1cnc(N2CCCCC2)c2ccccc12	inactive: -8.08%
OCc1cnc(SCc2ccccc2F)n1Cc1ccc(F)cc1	inactive: -18.6%
Cc1cc(C)cc(NC(=O)C(Cc2ccccc2)NS(=O)(=O)c2ccc3c(c2)CCC(=O)N3)c1 (stereo not given)	inactive: -15.8%
CCOc1ccccc1NC(=O)C(=O)Nc1ccc2nc3n(c(=O)c2c1)CCCCC3	inactive: -2.92%
Cc1cc(C)c(NC(=O)C2CCCN(S(=O)(=O)c3c(C)noc3C)C2)c(C)c1 (stereo not given)	inactive: -18.5%
Cc1ccccc1OCc1ccc(-c2nc(C#N)c(N3CCN(c4cccc(Cl)c4)CC3)o2)o1	inactive: -11.3%
O=C(c1ccccc1)N1c2nc(-c3ccco3)nn2C2(CCCCC2)[C@@H]2CCCC[C@@H]21	inactive: -1.2%
Cc1cc(C)cc(NC(=O)Cc2noc3ccccc23)c1	inactive: 4.08%
CCN(CC)S(=O)(=O)c1ccc(C(=O)NCCSc2c(-c3ccccc3)[nH]c3ccccc23)cc1	inactive: -16.8%
CCC(=O)N1CCc2cc(S(=O)(=O)NCCC(=O)Nc3ccc(N(CC)CC)cc3C)ccc21	inactive: -19.3%
CCCCCCOc1ccc(C2C(=O)N(C3CCCCC3)CC(=O)N2C2CCCCC2)cc1 (stereo not given)	inactive: -5.38%
NC(=O)c1cc(S(=O)(=O)N2CCN(c3cccc(C(F)(F)F)c3)CC2)cs1	inactive: -11.1%
COc1cc(NC(=O)CSc2c3c(nc4ccccc24)CCC3)cc(OC)c1OC	inactive: -2.52%
O=C(c1ccc2c(c1)N(Cc1ccc(F)cc1)C(=O)c1ccccc1S2(=O)=O)N1CCCCC1	inactive: -3.73%
Cc1ccc(-c2nn3c(C)nnc3c3ccccc23)cc1S(=O)(=O)NCC(C)O (stereo not given)	inactive: -10.8%
Cc1ccc(-n2ncc(C(=O)NCc3ccco3)c2C2CCN(C(=O)OC(C)(C)C)CC2)cc1C	inactive: -6.02%
CCc1ccccc1N(C)C(=O)C1CCCN(c2ncnc3c2nc2n3CCCCC2)C1 (stereo not given)	inactive: -28.3%
COc1cc(NC(=O)c2cc3cc4ccc(C)cc4nc3o2)cc(OC)c1OC	inactive: -5.5%
O=C(CSc1nc2ccccc2nc1Cc1ccc(Cl)cc1)N1CCN(c2ccccc2)CC1	inactive: -1.12%
O=C(CSc1nc(-c2cccc(F)c2)[nH]c1-c1ccccc1)Nc1ccc2c(c1)OCO2	inactive: -17.2%
Cc1c(C(=O)Nc2cc(F)ccc2F)sc2nc(-c3ccc(F)cc3)cn12	inactive: -7.69%
